{
  "source": "paper PMC9817974",
  "about": "“Pharmacokinetic Basis for Using Saliva Matrine Concentrations as a Clinical Compliance Monitoring in Antitumor B Chemoprevention Trials in Humans” (Cancers, 2022)",
  "key": {"[1]": {"experiment": "Population compartmental PK co-model of plasma and saliva matrine (Model C)", "type": "in vivo, human", "protocol": "The population PK model was developed using plasma and saliva concentrations of 8 healthy participants in the study. No input was made for the missing data points. Initial estimates of individual compartmental PK parameters were derived from non-compartmental analysis. Different compartmental PK models were tested to describe the plasma and saliva PK profiles of Matr. The population pharmacokinetic compartmental models using actual dosing and sampling times were built using Phoenix NLME 8.2. and goodness-of-fit was determined. More details of PK modeling are described in Supplementary Material S3 Section S3.\nModel A has two compartments plasma and saliva, while a tissue compartment was added to Model B and Model C. A direct absorption to the saliva compartment was added in Model C (Figure 4) to account for the reabsorption of drug excreted in the saliva from the oral cavity and the intestine, thereby entering the recycling process (Figure 5).\nS3. Compartmental Pharmacokinetic Co-modeling\nThe population PK model was developed using plasma and saliva concentrations of 8 healthy\nparticipants in the study.\nin blood sampling, no input was made for the missing data points. Initial estimates of individual\ncompartmental PK parameters were derived using WinNonlin® version 8.2. The concentration of\nmatrine in plasma and saliva were fitted simultaneously. Actual dosing and sampling times were\nused for the compartmental modeling. Different compartmental PK models were tested to describe\nthe concentration of matrine in plasma and saliva compartments (Fig 7 in the main manuscript).\nA1 = - (Cl_p * C) + (Aa * Ka)- (Vmax * C / (C + Km))- (A1 * K13) + (A2 * Ksp)\nAa = - (Aa * Ka)- (Aa * K_a2)\nA2 = (Vmax * C / (C + Km))- (CL_s * Cs) + (A3 * Kts)- (A2 * Ksp) + (Aa * K_a2)\nA3 = (A1 * Kpt)- (A3 * Kts)\nThe population pharmacokinetic compartmental models using actual dosing and sampling\ntimes were built using Phoenix NLME 8.2. To determine the best fit pharmacokinetic model\nstructure, model selection and identification of variability were based on minimizing the Akaike\nInformation Criteria (AIC) and the log-likelihood values (-2LL), achieving adequate parameter\nprecision, inspection of goodness-of-fit plots and by comparison of the quality of fit plots (such as\nobserved vs. fitted data, weighted residual vs. fitted data, weighted residual vs. time)."}, "[2]": {"experiment": "Pilot study, intravenous infusion of Matr in F344 rats, salivary excretion", "type": "in vivo"}, "[3]": {"tested_on": "CYP or UGT enzymes", "parameters": "method as in PMID 20034755", "details": "cited from earlier work"}, "[4]": {"details": "patients; reported, used for power calculation; no reference given; cited from earlier work"}},
  "data": [
    {"smiles": "O=C1CCC[C@@H]2[C@H]3CCCN4CCC[C@@H](CN12)[C@@H]34", "note": "[matrine]", "values": [
      {"measurement": "Ka (absorption rate constant to the central compartment)", "setting": "[1]; Model C estimate", "result": "1.66 ± 0.27", "unit": "h⁻¹"},
      {"measurement": "Kas (absorption rate constant to the salivary compartment)", "setting": "[1]; Model C estimate", "result": "0.39 ± 0.14", "unit": "h⁻¹"},
      {"measurement": "Kpt (first-order rate constant plasma to tissue)", "setting": "[1]; Model C estimate", "result": "0.11 ± 0.02", "unit": "h⁻¹"},
      {"measurement": "Ksp (first-order rate constant saliva to plasma)", "setting": "[1]; Model C estimate", "result": "1.25 ± 0.28", "unit": "h⁻¹"},
      {"measurement": "Kts (first-order rate constant tissue to saliva)", "setting": "[1]; Model C estimate", "result": "23.42 ± 2.33", "unit": "h⁻¹"},
      {"measurement": "Km", "setting": "[1]; human, plasma and saliva, oral, 2400 mg, Model C estimate converted from mg/L, read-out: Km of transport from plasma to saliva", "result": 1130, "unit": "µM"},
      {"measurement": "time to salivary excretion", "setting": "[2]", "result": "≤ 15", "unit": "min"},
      {"measurement": "metabolism by CYP or UGT enzymes", "setting": "[3]", "result": "not metabolized by CYP or UGT enzymes"},
      {"measurement": "inter-individual variance of clearance (average)", "setting": "[4]", "result": 70, "unit": "%"},
      {"measurement": "inter-individual variance of clearance (range)", "setting": "[4]", "result": "60–83%"}
    ]}
  ]
}
